{"source": "patent US10730848B2", "about": "(priority 2013, dated 2020)", "data": [{"conditions": "assay concentrations", "values": [{"compound": "Cc1cccc(C)c1NC(=S)N/N=C/c1c(F)cc(Br)cc1F", "note": "[Compound 19c, N^1-(4-BROMO-2,6-DIFLUOROBENZYLIDENE)-N^4-(2,6-DIMETHYLPHENYL)THIOSEMICARBAZONE]", "solubility (in words)": "poorly soluble at assay concentrations"}, {"compound": "Cc1cccc(C)c1/N=C(\\N)N/N=C/c1ccc(Br)cc1", "note": "[Compound 22, 2-(4-BROMOBENZYLIDENE)-N′-(2,6-DIMETHYLPHENYL)HYDRAZINECARBOXIMIDAMIDE]", "solubility (in words)": "significantly more soluble"}, {"compound": "Cc1cccc(C)c1NC(=S)N/N=C/c1ccc(Br)cc1F", "note": "[Compound 19b, N^1-(4-BROMO-2-FLUOROBENZYLIDENE)-N^4-(2,6-DIMETHYLPHENYL)THIOSEMICARBAZONE]", "solubility (in words)": "poorly soluble at assay concentrations"}]}]}
